Results published in a collection of fitness landscapes (doi:10.1016/j.celrep.2020.107928).
The full ranking holds about 81,000 sequences; the median of “one-hybrid fitness for binding NBS DNA” is about -0.1, and the highest 2% start at about 0.36. Some of the results follow.

B1: Caulobacter ParB omega fusion; a variant is named by its letters at X, in order, B8GW30 (parent)
chain: MESVVVGEPGMSEGRRGLGRGLSALLGEVDAAPAQAPGEQLGGSREAPIEILQRNPDQPRRTFREEDLEDLSNSIREKGVLQPILVRPSPDTAGEYQIVAGERAWRAAQRAGLKTVPIMVRELDDLAVLEIGIIENVQRADLNVLEEALSYKVLMEKFERTQENIAQTIGKSXSHVANXMRLLXLPDEVQSYLVSGELTAXHARAIAAAADPVALAKQIIEGGLSVRETEALARKAPNLSAGKSKGGRPPRVKDTDTQALESDLSSVLGLDVSIDHRGSTGTLTITYATLEQLDDLCNRLTRGI

Variants of: B1
Assay: one-hybrid fitness for binding NBS DNA (the Noc-binding site; scaled: cognate 1, non-cognate 0); higher = stronger binding
Conditions: with NBS DNA site
Summary of the method: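 Fitness here means the log change in variant-to-wild-type read ratio between plasmids sequenced before and after selection. That scale was set so cognate equals 1 and non-cognate equals 0. The selection was a bacterial one-hybrid screen of Caulobacter ParB libraries, four specificity codons randomised, in E. coli USO carrying a HIS3 reporter with the site 19 bp from the promoter, grown 48 hours at 37°C on M9-minus-histidine with 0.1 mM IPTG and 5 mM 3-AT.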

| Variant | one-hybrid fitness for binding NBS DNA |
| --- | --- |
| MYHW | ≤ 0.2 |
| KQMS | ≤ 0.2 |
| PLAG | ≤ 0.2 |
| TFTG | ≤ 0.2 |
| HRRY | ≤ 0.2 |
| GHYL | ≤ 0.2 |
| AHIH | ≤ 0.2 |
| GEQR | ≤ 0.2 |
| QQFY | ≤ 0.2 |
| NTML | ≤ 0.2 |
| EMAA | ≤ 0.2 |
| LPGG | ≤ 0.2 |
| RYEP | ≤ 0.2 |
| SGNL | ≤ 0.2 |
| QRLN | 0.308 |
| NDLL | ≤ 0.2 |
| RWRL | ≤ 0.2 |
| PRGV | ≤ 0.2 |
| KRMS | 0.396 |
| QPDS | ≤ 0.2 |
| NRQC | ≤ 0.2 |
| QASI | ≤ 0.2 |
| RMNK | ≤ 0.2 |
| HRIC | ≤ 0.2 |

| Variant | one-hybrid fitness for binding NBS DNA |
| --- | --- |
| PFPL | ≤ 0.2 |
| TPAG | ≤ 0.2 |
| HHRR | ≤ 0.2 |
| TEMG | ≤ 0.2 |
| DMTS | ≤ 0.2 |
| FGYT | ≤ 0.2 |
| EDNR | ≤ 0.2 |
| WTFN | ≤ 0.2 |
| MQWR | ≤ 0.2 |
| PRSV | ≤ 0.2 |
| QMSM | ≤ 0.2 |
| EVTT | ≤ 0.2 |
| FTGR | ≤ 0.2 |
| PRWL | ≤ 0.2 |
| QYVQ | 0.313 |
| TNPV | ≤ 0.2 |
| DCRS | ≤ 0.2 |
| MKCT | ≤ 0.2 |
| IRNR | 0.422 |
| RYWS | ≤ 0.2 |
| FIMR | ≤ 0.2 |
| DQNG | ≤ 0.2 |
| ESVT | ≤ 0.2 |
| FTWG | ≤ 0.2 |

| Variant | one-hybrid fitness for binding NBS DNA |
| --- | --- |
| QVFR | 0.302 |
| YGDR | ≤ 0.2 |
| MHFY | ≤ 0.2 |
| LLVG | ≤ 0.2 |
| APPA | ≤ 0.2 |
| KHVE | ≤ 0.2 |
| RHLL | ≤ 0.2 |
| TQPE | ≤ 0.2 |
| VTSS | ≤ 0.2 |
| EGKI | ≤ 0.2 |
| RHAG | ≤ 0.2 |
| SIEG | ≤ 0.2 |
| PFRI | ≤ 0.2 |
| GMIS | ≤ 0.2 |
| GDLR | ≤ 0.2 |
| PAFP | ≤ 0.2 |
| CDSL | ≤ 0.2 |
| LGAR | ≤ 0.2 |
| LSRL | ≤ 0.2 |
| QTNQ | 0.377 |
| GISC | ≤ 0.2 |
| DIAY | ≤ 0.2 |
| CDTG | ≤ 0.2 |
| TMSP | ≤ 0.2 |

| Variant | one-hybrid fitness for binding NBS DNA |
| --- | --- |
| LRSS | ≤ 0.2 |
| RKVD | ≤ 0.2 |
| HFCR | ≤ 0.2 |
| THCR | ≤ 0.2 |
| TCRH | ≤ 0.2 |
| AYPT | ≤ 0.2 |
| QHMN | ≤ 0.2 |
| IPFF | ≤ 0.2 |
| SSDK | ≤ 0.2 |
| HGCR | ≤ 0.2 |
| PGNK | ≤ 0.2 |
| RNLY | ≤ 0.2 |
| LRLK | ≤ 0.2 |
| RLAH | ≤ 0.2 |
| KIHR | ≤ 0.2 |
| SRTT | ≤ 0.2 |
| TAIK | ≤ 0.2 |
| HPPQ | ≤ 0.2 |
| SGTN | ≤ 0.2 |
| ADNC | ≤ 0.2 |
| RHSG | ≤ 0.2 |
| TWTC | ≤ 0.2 |
| CSGT | ≤ 0.2 |
| TTIT | ≤ 0.2 |

| Variant | one-hybrid fitness for binding NBS DNA |
| --- | --- |
| SCPT | ≤ 0.2 |
| VGMH | ≤ 0.2 |
| YIAS | ≤ 0.2 |
| YACV | ≤ 0.2 |
| QQQM | ≤ 0.2 |
| NLEC | ≤ 0.2 |
| QTVN | ≤ 0.2 |
| RAPQ | ≤ 0.2 |
| FQQS | ≤ 0.2 |
| TWHE | ≤ 0.2 |
| WSTF | ≤ 0.2 |
| QMKH | 0.559 |
| RCEF | ≤ 0.2 |
| LYLG | ≤ 0.2 |
| EIMG | ≤ 0.2 |
| GLLD | ≤ 0.2 |
| QFYS | ≤ 0.2 |
| KGMS | ≤ 0.2 |
| VLHF | ≤ 0.2 |
| HCYR | ≤ 0.2 |
| DGDV | ≤ 0.2 |
| FRTT | ≤ 0.2 |
| QRWP | ≤ 0.2 |
| WDRS | ≤ 0.2 |

| Variant | one-hybrid fitness for binding NBS DNA |
| --- | --- |
| TPYN | ≤ 0.2 |
| PWLI | ≤ 0.2 |
| RITY | ≤ 0.2 |
| MQFT | ≤ 0.2 |
| QSLA | ≤ 0.2 |
| KDSS | ≤ 0.2 |
| HSRF | ≤ 0.2 |
| QDWF | ≤ 0.2 |
| TKTD | ≤ 0.2 |
| RRRL | 0.25 |
| CMWR | ≤ 0.2 |
| GRGD | ≤ 0.2 |
| SQHS | ≤ 0.2 |
| TPLT | ≤ 0.2 |
| DEKG | ≤ 0.2 |
| TKIE | ≤ 0.2 |
| YRIG | ≤ 0.2 |
| EIDS | ≤ 0.2 |
| WLRC | ≤ 0.2 |
| RDDA | ≤ 0.2 |
| MPFT | ≤ 0.2 |
| FFHG | ≤ 0.2 |
| VYGA | ≤ 0.2 |
| KTPR | ≤ 0.2 |

| Variant | one-hybrid fitness for binding NBS DNA |
| --- | --- |
| PHAA | ≤ 0.2 |
| HRFA | ≤ 0.2 |
| HKMR | ≤ 0.2 |
| QHFI | ≤ 0.2 |
| NPNC | ≤ 0.2 |
| SNDR | ≤ 0.2 |
| SLWV | ≤ 0.2 |
| SVVG | ≤ 0.2 |
| RCGY | ≤ 0.2 |
| TDNA | ≤ 0.2 |
| APSS | ≤ 0.2 |
| MTDD | ≤ 0.2 |
| GEPF | ≤ 0.2 |
| ELYR | ≤ 0.2 |
| YCHS | ≤ 0.2 |
| PRYS | ≤ 0.2 |
| SRLV | ≤ 0.2 |
| STQG | ≤ 0.2 |
| INPT | ≤ 0.2 |
| ESIT | ≤ 0.2 |
| KPKR | ≤ 0.2 |
| PHEW | ≤ 0.2 |
| RCKT | 0.653 |
| HQDR | ≤ 0.2 |

| Variant | one-hybrid fitness for binding NBS DNA |
| --- | --- |
| QSAN | ≤ 0.2 |
| GKQT | ≤ 0.2 |
| KMLG | ≤ 0.2 |
| TNHV | ≤ 0.2 |
| SSTH | ≤ 0.2 |
| CYWM | ≤ 0.2 |
| KAPW | ≤ 0.2 |
| DHSV | ≤ 0.2 |
| QTNI | 0.267 |
| HQLS | ≤ 0.2 |
| PPCN | ≤ 0.2 |
| PHAR | ≤ 0.2 |
| ANTK | ≤ 0.2 |
| RTMQ | ≤ 0.2 |
| QAMM | ≤ 0.2 |
| CTSR | ≤ 0.2 |
| YTQS | ≤ 0.2 |
| LDQV | ≤ 0.2 |
| INPR | ≤ 0.2 |
| HKNG | ≤ 0.2 |
| MRKW | ≤ 0.2 |
| KRTT | 0.583 |
| AAKC | ≤ 0.2 |
| ISKV | ≤ 0.2 |

| Variant | one-hybrid fitness for binding NBS DNA |
| --- | --- |
| IKNT | ≤ 0.2 |
| CDTV | ≤ 0.2 |
| LACI | ≤ 0.2 |
| QYNP | ≤ 0.2 |
| IGER | ≤ 0.2 |
| NRHY | ≤ 0.2 |
| HIAE | ≤ 0.2 |
| WLAR | ≤ 0.2 |
| NCWT | ≤ 0.2 |
| CGMC | ≤ 0.2 |
| RTMD | ≤ 0.2 |
| PDFS | ≤ 0.2 |
| AIGN | ≤ 0.2 |
| LAGC | ≤ 0.2 |
| VKQV | ≤ 0.2 |
| VREL | ≤ 0.2 |
| YVDC | ≤ 0.2 |
| NYMR | ≤ 0.2 |
| DCVD | ≤ 0.2 |
| SWVC | ≤ 0.2 |
| FYEL | ≤ 0.2 |
| HSMM | ≤ 0.2 |
| HTVF | ≤ 0.2 |
| GKND | ≤ 0.2 |

| Variant | one-hybrid fitness for binding NBS DNA |
| --- | --- |
| FTSK | ≤ 0.2 |
| LYAS | ≤ 0.2 |
| KNNT | ≤ 0.2 |
| LTLI | ≤ 0.2 |
| VTIS | ≤ 0.2 |
| MHVS | ≤ 0.2 |
| DWMV | ≤ 0.2 |
| DAAC | ≤ 0.2 |
| WQGR | ≤ 0.2 |
| TTWG | ≤ 0.2 |
| ANAI | ≤ 0.2 |
| TGFI | ≤ 0.2 |
| IPAH | ≤ 0.2 |
| EIIC | ≤ 0.2 |
| RRWD | ≤ 0.2 |
| SYHT | ≤ 0.2 |
| YDTS | ≤ 0.2 |
| PLPS | ≤ 0.2 |
| WACG | ≤ 0.2 |
| FMGL | ≤ 0.2 |
| TPLA | ≤ 0.2 |
| KELG | ≤ 0.2 |
| PVTG | ≤ 0.2 |
| MAMG | ≤ 0.2 |

| Variant | one-hybrid fitness for binding NBS DNA |
| --- | --- |
| MDMR | ≤ 0.2 |
| FNPV | ≤ 0.2 |
| SIDW | ≤ 0.2 |
| NRDM | ≤ 0.2 |
| VCVR | ≤ 0.2 |
| QESC | ≤ 0.2 |
| SICR | ≤ 0.2 |
| AQNE | ≤ 0.2 |
| MQIG | ≤ 0.2 |
| EQSS | ≤ 0.2 |
| SMLT | ≤ 0.2 |
| WQCC | ≤ 0.2 |
| HFMV | ≤ 0.2 |
| IMWS | ≤ 0.2 |
| NEKI | ≤ 0.2 |
| NGVE | ≤ 0.2 |
| KTFT | ≤ 0.2 |
| KYNW | ≤ 0.2 |
| KKSS | ≤ 0.2 |
| RVTM | ≤ 0.2 |
| RDYG | ≤ 0.2 |
| GPAT | ≤ 0.2 |
| TMNG | ≤ 0.2 |
| GKTF | ≤ 0.2 |

| Variant | one-hybrid fitness for binding NBS DNA |
| --- | --- |
| VKCT | ≤ 0.2 |
| DGNR | ≤ 0.2 |
| TVLF | ≤ 0.2 |
| CLAE | ≤ 0.2 |
| FHCW | ≤ 0.2 |
| QFIL | ≤ 0.2 |
| KWCG | ≤ 0.2 |
| DFFS | ≤ 0.2 |
| GQDP | ≤ 0.2 |
| FRIR | ≤ 0.2 |
| PKAE | ≤ 0.2 |
| CHQV | ≤ 0.2 |
| INVR | ≤ 0.2 |
| YSTR | ≤ 0.2 |
| QIPR | 0.203 |
| LDEC | ≤ 0.2 |
| PVEC | ≤ 0.2 |
| DERP | ≤ 0.2 |
| ARYF | ≤ 0.2 |
| ENRR | ≤ 0.2 |
| PRRS | ≤ 0.2 |
| QQPN | ≤ 0.2 |
| AMCP | ≤ 0.2 |
| TDGM | ≤ 0.2 |

| Variant | one-hybrid fitness for binding NBS DNA |
| --- | --- |
| HAHK | ≤ 0.2 |
| PYEL | ≤ 0.2 |
| SHMW | ≤ 0.2 |
| TFKY | ≤ 0.2 |
| CNRN | ≤ 0.2 |
| DHPP | ≤ 0.2 |
| NLAN | ≤ 0.2 |
| SMFV | ≤ 0.2 |
| DVIG | ≤ 0.2 |
| GFAT | ≤ 0.2 |
| ANGI | ≤ 0.2 |
| DCMM | ≤ 0.2 |
| IRCK | ≤ 0.2 |
| HSNA | ≤ 0.2 |
| CTPL | ≤ 0.2 |
| PLTP | ≤ 0.2 |
| IDHV | ≤ 0.2 |
| CLIV | ≤ 0.2 |
